# Assay results published in patent US20160067272A1, “METHODS FOR TREATING IMMUNE DISEASES” (priority 2013, published 2016).
# Test system: tryptophan hydroxylase-1 (Tph-1) and carboxypeptidase A3 (CA3)
# Test: Gene expression in CD4+ T cells (microarray, qPCR)
# Type: cell-based, mouse
# Conditions: Th0, Th1, Th2 and iTreg polarizing conditions, 96 hrs, with vs without NAD+
# Excerpt: After successive washes, RNA was eluted.
smiles,measurement,value
"NC(=O)c1ccc[n+]([C@@H]2O[C@H](COP(=O)([O-])OP(=O)(O)OC[C@H]3O[C@@H](n4cnc5c(N)ncnc54)[C@H](O)[C@@H]3O)[C@@H](O)[C@H]2O)c1 [NAD+, nicotinamide adenine dinucleotide]",Tph-1 gene expression (microarray),increased
